Data taken from article doi:10.1101/2021.02.19.432017 (bioRxiv, 2021).
Values belong to the binder of their own block, whether it stands above or below them.

Experiments:
[1] = target: T1, Ras suppressor-1 (Rsu-1), wild type (human, UniProt Q15404 1-277); test: BLI
T1 sequence: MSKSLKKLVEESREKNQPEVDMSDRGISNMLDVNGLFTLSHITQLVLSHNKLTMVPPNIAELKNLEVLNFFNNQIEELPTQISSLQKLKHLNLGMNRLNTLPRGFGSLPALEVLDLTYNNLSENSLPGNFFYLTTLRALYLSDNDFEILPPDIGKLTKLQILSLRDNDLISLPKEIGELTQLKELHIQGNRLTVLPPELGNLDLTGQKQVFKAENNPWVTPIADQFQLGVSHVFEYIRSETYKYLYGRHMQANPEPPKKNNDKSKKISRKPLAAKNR

[2] = target: T1, Ras suppressor-1 (Rsu-1), wild type; test: SEC
[3] = target: T2, Rsu-1 double mutant (FRAA) (human, UniProt Q15404 1-277, Phe71 to alanine (FRAA) | Arg165 to alanine (FRAA)); test: BLI
T2 sequence: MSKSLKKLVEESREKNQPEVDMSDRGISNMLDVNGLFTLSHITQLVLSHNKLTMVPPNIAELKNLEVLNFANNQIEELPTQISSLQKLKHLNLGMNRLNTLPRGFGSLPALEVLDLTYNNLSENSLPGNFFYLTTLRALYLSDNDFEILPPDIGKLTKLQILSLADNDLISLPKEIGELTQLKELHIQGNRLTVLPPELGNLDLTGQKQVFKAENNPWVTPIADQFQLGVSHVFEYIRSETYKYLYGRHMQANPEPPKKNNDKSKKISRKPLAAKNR

- Kd [1]: 1.37 ± 0.5 nM
B1: GST-fused PINCH-1 LIM4-5 domain (domain or fragment)
chain: GVPICGACRRPIEGRVVNAMGKQWHVEHFVCAKCEKPFLGHRHYERKGLAYCETHYNQL[letters of about 80 residues left out]

- binding result [1]: binds
B2: GST-fused PINCH-1 LIM5 domain, Asp295 substituted by Val295 (domain or fragment)
chain: not shown

- binding result [2]: binds
B3: PINCH-1 LIM5 domain (size exclusion, thermal shift) (domain or fragment)
chain: not shown

- binding result [1]: binds
- Kd [3]: ~1000 nM
B4: GST-fused PINCH-1 LIM5 domain (domain or fragment)
chain: not shown
